From PubChem BioAssay AID493208 (National Center for Advancing Translational Sciences (NCATS), 2011)
Among all 44,000 compounds or so, about 340 (0.77%) were called active. Not shown: some 5% with an inconclusive outcome. Calls follow the shape of the dose curve; as a rule, active = well fitted inhibition curve with a large enough effect; inconclusive = small, poorly fitted or top-dose-only effect; inactive = flat fitted curve, though single readings scatter. The list shows a part of the results.

Test: Acumen qHTS Assay for Inhibitors of the mTORC1 Signaling Pathway in MEF (Tsc2-/-, p53-/-) Cells: Sytravon;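 also: plate controls were DMSO for no effect and rapamycin for full effect; nearly all actives have a fitted effect of over 50% in size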
Details: phospho-rpS6 immunofluorescence/PI, 24 h; series mostly up to 38.3 µM; activity change, negative = inhibition: at the top concentration
Summary of the method: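 Cell-based qHTS: Tsc2-/- p53-/- MEF, 24 h cpd, 37 °C; fix/perm, anti-phospho-S6 Alexa-488 + PI; Acumen 488 nm scan; pS6/PI ratio, % positive cells; rapamycin 7.5 nM = inhibition ref; PI count = viability.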

Activity change, negative = inhibition, inactive:
COc1ccccc1CNc1ccc(-c2nc(-c3ccncc3)no2)cc1[N+](=O)[O-] 0.355%
Cc1cc2ccccc2n1CCNC(=O)c1cccc(Cl)c1 -2.45%
COc1ccc(CNC(=O)CC(c2ccc(OC)c(OC)c2)N2Cc3ccccc3C2=O)cc1 (stereo not drawn) -0.595%
CCOc1ccc(NC(=O)CSC2=Nc3ccccc3C3=NC(CC(=O)NCc4ccco4)C(=O)N23)cc1 (stereo not drawn) -4.06%
CC(C)c1ccc(NC(=O)c2cc(S(=O)(=O)NCc3ccccc3Cl)ccc2F)cc1 -22.9%
CCOc1cc(C(=O)N2CCc3c([nH]c4ccccc34)C2c2ccccc2)cc(OCC)c1OCC (stereo not drawn) 2.09%
Cc1ccc(N(CC(=O)Nc2ccc(C)c(F)c2)S(=O)(=O)c2c(C)n[nH]c2C)cc1 -0.157%
N#Cc1c[nH]n2c(NC3CCCC3)c(-c3cccc(Cl)c3)nc12 0.971%
COc1ccc(C)cc1NC(=O)Cn1c(=O)ccc2cc(S(=O)(=O)N3CCCC3)ccc21 -1.67%
CCOC(=O)c1sc2ncn(CC(=O)Nc3ccc(C)cc3Br)c(=O)c2c1C 0.52%
CCc1ccc(Sc2cc(C(=O)NC(C)CC)c3ccccc3n2)cc1 (stereo not drawn) 0.128%
CCOc1ccc(OCC(=O)Nc2nnc3n2CCS3)cc1 -1.8%
COc1cccc(NC(=O)c2cnn(-c3ccccc3)c2-n2cccc2)c1 -1.1%
COc1ccc(-c2noc(CSc3nnc(-c4ccncc4)n3-c3ccc(C)cc3)n2)cc1 -4.21%
CCOc1ccc(Sc2cc(C(=O)NCCc3ccccc3)c3ccccc3n2)cc1 6.74%
CCOc1nc(NC(=O)NS(=O)(=O)Oc2ccccc2)nc(-c2ccccc2)n1 1.29%
COc1cccc(CNC(=O)C2CCC(CNS(=O)(=O)c3ccc(Br)s3)CC2)c1 (stereo not drawn) -7.75%
CCOC(=O)C(Cc1c[nH]c2ccccc12)NC(=O)COc1ccc(Cl)c(C)c1 (stereo not drawn) -2.44%
O=S(=O)(c1ccc2c(c1)CCN2)N1CCCCCC1 -0.504%
Cc1ccc2c(c1)c1c(c(=O)n(Cc3ccccc3)c(=O)n1CC(=O)NCc1ccccc1Cl)n2C -14.8%
CCc1ccc(NCc2cc3cc(OC)c(OC)cc3n(CC(=O)Nc3cc(C)ccc3C)c2=O)cc1 1.84%
CN(C(=O)CN1C(=O)CCSc2ccc(S(=O)(=O)N3CCCC3)cc21)c1ccccc1 -2.23%
Cc1cccc(C)c1Nc1nc2ccccc2nc1NS(=O)(=O)c1ccccc1 9.71%
COc1ccc(C(C)n2c(C)c3c(C)nnc(C)c3c2C)cc1 (stereo not drawn) -6.24%
COc1ccc(S(=O)(=O)N(CC(=O)NCc2ccccc2)c2ccc(C)cc2)cc1OC -7.71%
O=C(Cn1c(=O)nc(-c2ccccc2)c2ccccc21)NCc1ccc(F)cc1 -5.28%
O=C(Nc1ccccc1)N(Cc1ccc(F)cc1)c1ccccn1 -3.32%
C=Cc1ccc(CN2C(=O)c3ccccc3Sc3ccc(C(=O)OCc4ccco4)cc32)cc1 -8.96%
Cc1cc(O)c(C(c2ccccc2)N2CCN(C)CC2)c(=O)n1Cc1ccco1 (stereo not drawn) -7.42%
COc1ccc(-c2noc(CN(C(C)C)S(=O)(=O)c3ccc(Br)cc3)n2)cc1 1.52%
CC1=C(C(=O)N2CCN(c3cccc(C)c3C)CC2)C2(CCCCC2)OC1=O -13.2%
Cc1cccc(NC2=CC(c3cccc(Br)c3)N(c3cccc(C)c3)C2=O)c1 (stereo not drawn) 5%
CCN(CC)CCCNC(=O)c1ccc2c(c1)NC(=O)C(CS(=O)(=O)Cc1cccc(Br)c1)N2 (stereo not drawn) -0.123%
Cc1ccc(CNC(=O)c2c(O)nc3c(C)cccn3c2=O)cc1 -1.19%
Cc1nc2ccc(S(=O)(=O)NC(CC(C)C)C(=O)N3CCN(c4ccc(F)cc4)CC3)cc2s1 (stereo not drawn) -8.94%
CN(C)c1ccc(CNS(=O)(=O)c2ccc3[nH]c4c(c3c2)CCCCC4)cc1 -0.188%
COc1ccc(Br)cc1CNC(=O)c1nn(-c2ccc(C)cc2)c(=O)c2c1c1ccccc1n2C -12.7%
Cc1ccccc1-c1noc(-c2cccnc2N(C)Cc2ccc(Cl)cc2)n1 -0.213%
Fc1ccc(Cc2cn3cc(-c4ccccc4)nc3s2)cc1 2.21%
O=C(C1CC1)N1CCN(c2nc3c(Cl)cccc3s2)CC1 -2.25%
COc1ccc(CCNC(=O)CSc2nnnn2-c2cccc(C(C)=O)c2)cc1OC -2.03%
CCOC(=O)c1ccc(NC(=O)c2csnn2)cc1 -0.848%
CCOC(=O)c1cccc(NC(=O)CCC(=O)N2CC(C)Oc3ccc(C)cc32)c1 (stereo not drawn) 2.11%
CC1CCN(S(=O)(=O)c2ccc3c(c2)N(CC(=O)NC(C)C)C(=O)CO3)CC1 -12.8%
Cc1ccc(-c2nnc(Nc3ccc(Cl)c(Cl)c3)c3ccccc23)cc1S(=O)(=O)NCCO 14.4%
COc1cccc(CNC(=O)CSc2ncc(S(=O)(=O)c3ccc(Br)cc3)c(=O)[nH]2)c1 6.53%
Cc1ccc(NC(=O)C2CCCN2S(=O)(=O)c2cccc3nsnc23)cc1Cl (stereo not drawn) -8.79%
COc1ccc(CNC(=O)CSc2ncc(S(=O)(=O)c3ccc(C)c(Cl)c3)c(=O)[nH]2)cc1 -1.02%
